What all share (test): Primary Screen for Target Class Profiling of Small Molecule Inhibitors of Methyltransferases
The target in experiment [1] is Glycine N-methyltransferase (Homo sapiens) (UniProt Q14749). To be noted: purified enzyme, MTase-Glo SAH luminescence; measured here: GNMT inhibition; at 40 µM; stronger effect = lower value. The method, boiled down:
(§1)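 Each enzyme was assayed with SAM and its substrate. SAH formation detected by MTase-Glo luminescence; single-point 40 uM screen[…].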

Experiment [2] addresses Guanidinoacetate N-methyltransferase (Homo sapiens) (UniProt Q14353). The conditions noted are these: purified enzyme, MTase-Glo SAH luminescence; measured here: GAMT inhibition; at 40 µM; stronger effect = lower value. In short, it runs like this: as §1
Experiment [3] deals with Histamine N-methyltransferase (Homo sapiens) (UniProt P50135). To be noted: purified enzyme, MTase-Glo SAH luminescence; measured here: HNMT inhibition; at 40 µM; stronger effect = lower value. In short, it runs like this:
as §1

Experiment [4] addresses Nicotinamide N-methyltransferase (Homo sapiens) (UniProt P40261). The conditions noted are these: purified enzyme, MTase-Glo SAH luminescence; measured here: NNMT inhibition; at 40 µM; stronger effect = lower value. The method, boiled down: as §1
Experiment [5] addresses Phenylethanolamine N-methyltransferase (Homo sapiens) (UniProt P11086). To be noted: purified enzyme, MTase-Glo SAH luminescence; measured here: PNMT inhibition; at 40 µM; stronger effect = lower value. In short, it runs like this:
as §1

This is one part of the list. Shown are side measurements of this screen, not its main read-out; they come without a call. Numbered stars: 1 amine (or outer) side, 2 acyl side, 3 side chain; on linkers, the order of the positions; unused ones are H or OH. Square brackets hold non-standard residues; d marks the D form. Peptide text beside a SMILES is read from it. * marks the point of attachment. ξ: configuration not given here. X9 = CCC(C)(N*)C(=O)C1CC[C@@H](C(=O)N[C@@H](Cc2ccccc2)C(=O)NCC(=O)O)N1; X8 = O=C([C@@H]1CC(O)CN1[*:1])[*:2]; aIle = CC[C@@H](C)[C@H](N)C(=O)O; Thr(3ξ) = CC(O)[C@H](N)C(=O)O; ξIva = CCC(C)(N)C(=O)O; Aib = CC(C)(N)C(=O)O

In PubChem BioAssay AID1745853 (National Center for Advancing Translational Sciences (NCATS), 2022) one finds activity change, negative = inhibition data, which are given here for 30 compounds.
On the % scale 0 is the no-effect control and ±100 the full control effect.

With `COc1ccc2cc3n(c2c1)CC(C)(C(=O)NCC1CCCO1)N(Cc1ccc(Cl)cc1)C3=O` (stereo not drawn), the activity change, negative = inhibition in experiment [1] stood at 3.02%; in experiment [2] it was 0%; in experiment [3], 9.47%; in experiment [4] it was 7.2%; in experiment [5], 3.67%.
The like results for `Cc1cnc(C2CCNC2)n1Cc1ccccc1` (stereo not drawn) were, in that order, -2.08%, 0.266%, -34.6%, -1.15% and -9.72%.
The like results for `NC(=O)c1cnccn1` were, in that order, -2.42%, 1.78%, -2.7%, -11.9% and -0.769%.
On to `CC1CCCC(NC(=O)C2(C)Cn3c(nc4ccccc43)C(=O)N2Cc2ccccc2Cl)C1C` (stereo not drawn), for which the activity change, negative = inhibition in experiment [1] was 7.75%; in experiment [2], 0%; in experiment [3], 9.65%; in experiment [4] it was 10.9%; in experiment [5], 2.4%.
As for `CCCn1nc(CNC(=O)c2cc(F)ccc2F)c2ccccc21`, the activity change, negative = inhibition in experiment [1] came to 12.3%; in experiment [2] it was 2.22%; in experiment [3], 10.4%; in experiment [4] it was 1.11%; in experiment [5], 9.59%.
On to `COCCN(C)C[C@H]1C[C@H](CO)CN(C(=O)c2cc3ccccc3s2)C1`, for which the activity change, negative = inhibition is -6.12% in experiment [1]; -11% in experiment [2]; -4.47% in experiment [3]; -16.3% in experiment [4]; -10.5% in experiment [5].
The like results for `COCCn1c(C)cnc1CC1CCCN(S(=O)(=O)c2cccc(F)c2)C1` (stereo not drawn) were, in that order, -3.83%, -4.58%, -2.4%, -12.3% and -3.82%.
Regarding `O=S(=O)(NCCc1noc(-c2ccccc2)n1)c1ccc(Cl)cc1`, the activity change, negative = inhibition in experiment [1] is -2.38%; in experiment [2], -6.32%; in experiment [3], -0.256%; in experiment [4], -5.95%; in experiment [5], -2.8%.
On the same counts, the results for `Nc1nc(N)c(N=O)c(OCC2CCCCC2)n1` are -2.58%, 9.3%, 4.54%, -16.5% and -2.89%.
The like results for `CCCn1c(=O)c2ccc(C(=O)NC(C)CC)cc2n2c(=O)n(CC(=O)NCc3ccccc3)nc12` (stereo not drawn) were, in that order, 3.36%, 0%, 5.69%, -0.477% and -3.5%.
On the same counts, the results for `CCOCCCNC(=O)N1Cc2c(sc3c2CCCC3)-n2cccc2C1c1ccccc1` (stereo not drawn) are -6.93%, 3.77%, -6.83%, -16.2% and -1.17%.
In the case of `CC1(C(=O)NC2CCCCC2)Cn2c(cc3occc32)C(=O)N1Cc1cccc(Br)c1` (stereo not drawn), the activity change, negative = inhibition was 0.097% in experiment [1]; 0% in experiment [2]; 1.36% in experiment [3]; -0.662% in experiment [4]; 1.37% in experiment [5].
The like results for `CCCn1c(=O)c2ccc(C(=O)NC(C)CC)cc2n2c(=O)n(Cc3cc(C)ccc3C)nc12` (stereo not drawn) were, in that order, -1.7%, 4.12%, 1.02%, -5.24% and -0.96%.
The like results for `CSCc1ccc(C(=O)N2CCN(c3ccc(C)cc3)C(=O)C2)o1` were, in that order, -3.71%, -2.79%, -0.518%, 0.42% and 4.13%.
Consider `CC[C@@H](C)[C@H](NC(=O)C(C)(C)NC(=O)[C@H](CCC(N)=O)NC(=O)C(C)(CC)NC(=O)[C@H](Cc1c[nH]c2ccccc12)NC(C)=O)C(=O)N[C@H](C(=O)NC(C)(C)C(=O)N[C@@H](CC(C)C)C(=O)NC(C)(C)C(=O)N1CCC[C@H]1C(=O)N[C@@H](CCC(N)=O)C(=O)NC(C)(C)C(=O)N1CC(O)C[C@H]1C(=O)NC(C)(CC)C(=O)C1CC[C@@H](C(=O)N[C@@H](Cc2ccccc2)C(=O)NCC(=O)O)N1)C(C)O` (stereo partly drawn) (Ac-W[ξIva]Q[Aib][aIle][Thr(3ξ)][Aib]L[Aib]PQ[Aib][X8]-X9), for which the activity change, negative = inhibition in experiment [1] was -7.71%; in experiment [2] it was 1.08%; in experiment [3], -0.422%; in experiment [4], -3.5%; in experiment [5], -7.57%.
On to `COCc1noc(CCNC(=O)C2CC3(CCNCC3)CN2)n1` (stereo not drawn), for which the activity change, negative = inhibition in experiment [1] is 0.761%; in experiment [2] it was -0.562%; in experiment [3], 1.51%; in experiment [4], 0.793%; in experiment [5] it was 12.5%.
For the compound `O=C(c1ccco1)N1c2ccccc2CC1c1nnc(C2CCOCC2)o1` (stereo not drawn), the activity change, negative = inhibition in experiment [1] is -0.86%; in experiment [2] it was 4.02%; in experiment [3], 1.66%; in experiment [4], -2.58%; in experiment [5], 15.3%.
Turning to `Cc1cc2ncc(-c3ccccc3)nc2cc1C`, the activity change, negative = inhibition in experiment [2] is -24.6%; in experiment [4], -33.8%; in experiment [5], -22.4%.
Turning to `COc1ccc(CCNc2nc3c(S(=O)(=O)c4ccccc4)nnn3c3ccccc23)cc1OC`, the activity change, negative = inhibition in experiment [1] was -30.2%; in experiment [2], 0.719%; in experiment [3], 9.16%; in experiment [4], 6.93%; in experiment [5] it was 2.36%.
The like results for `CC1=C[C@H](O)[C@H]2C(C)(C)CCC[C@]2(C)[C@@]1(O)CO` were, in that order, 3.33%, 4.94%, 12.2%, -7.57% and 6.88%.
The like results for `COCC1CN(C)CC12CCN(S(=O)(=O)Cc1ccc(F)cc1)CC2` (stereo not drawn) were, in that order, -7.87%, -1.32%, -2.13%, -7.63% and 5.36%.
`COC(=O)c1c(CC=C(C)C)c(OC2OC(CO)C(O)C(O)C2O)c2ccccc2c1OC1OC(CO)C(O)C(O)C1O` (stereo not drawn): the activity change, negative = inhibition in experiment [1] is 2.87%; in experiment [2] it was 5.55%; in experiment [3], 3.23%; in experiment [4] it was -8.98%; in experiment [5], 6.92%.
On the same counts, the results for `O=c1c2ccccc2n2c(=O)n(Cc3cccc(Cl)c3)nc2n1Cc1ccccc1` are 7.58%, 0.44%, 13%, 2.1% and 7.73%.
On the same counts, the results for `CCS(=O)(=O)N1CCCCCCNC(=O)[C@@H]2C[C@@H](C(=O)N3CCc4ccccc4C3)C[C@@H]21` are -6%, -8.49%, -5.08%, -6.77% and -7.07%.
On the same counts, the results for `O=C(O)C[C@@H]1CCN(C(=O)C2CCCC2)C[C@@H]1CCN1CCCCC1` are -3.33%, -4.82%, -1.08%, -5.66% and -5.22%.
For `CC1CCCCC1NC(=O)C1(C)Cn2c(cc3occc32)C(=O)N1CCc1ccccc1` (stereo not drawn), the activity change, negative = inhibition is -3.28% in experiment [1]; 0% in experiment [2]; 0.042% in experiment [3]; -1.6% in experiment [4]; -1.77% in experiment [5].
As for `O=C(CCn1ccc2cc(S(=O)(=O)N3CCCCC3)ccc21)NCc1ccco1`, the activity change, negative = inhibition in experiment [1] is -4.25%; in experiment [2], -0.889%; in experiment [3], 0.933%; in experiment [4], -4.22%; in experiment [5] it was -1.78%.
The like results for `CCCn1c(=O)c2ccc(Cl)cc2n2c(=O)n(CC(=O)NCc3ccc(Cl)cc3)nc12` were, in that order, -5.18%, 0%, 7.66%, -5.68% and -4.95%.
On to `COc1ccc(Cl)cc1NC(=O)N1CCn2cccc2C1C(C)C` (stereo not drawn), for which the activity change, negative = inhibition is 3.38% in experiment [1]; 0% in experiment [2]; -0.556% in experiment [3]; -2.97% in experiment [4]; -1.42% in experiment [5].
The like results for `CN(Cc1ccco1)C(=O)c1cc2n(n1)CC(C)(C(=O)NC1CCCCC1)N(C)C2=O` (stereo not drawn) were, in that order, 4.96%, 0%, 10.1%, 9.5% and 5.88%.
